SMILES strings stand for the structures. Hit rate of the full screen: of about 46,000 compounds, about 60 (0.1%) were called active. Not shown: some 3% with an inconclusive outcome. Calls follow the shape of the dose curve; as a rule, active = well fitted inhibition curve with a large enough effect; inconclusive = small, poorly fitted or top-dose-only effect; inactive = no such curve, though single readings can be large or run the other way. The list shows a part of the results.

The assay is described as follows: Primary qHTS assay for Inhibitors of ovarian cancer metastasis using an organotypic tumor microenvironment (TME) model. Also: nearly all actives have a fitted effect of over 65% in size.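 As to activity change, negative = inhibition: plate controls were DMSO wells for no effect and tomatine positive control wells for full effect.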 Conditions: SKOV3ip1-GFP adhesion/invasion on 3D omental model, fluorescence; series mostly up to 45.8 µM; activity change, negative = inhibition: at the top concentration. An outline of the steps:
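qHTS, 4-pt dose (0.36-46 umol/L); SKOV3ip1-GFP, 1,200 cells/well, no FBS; primary omental fibroblast/mesothelial co-culture 48 h pre-grown; 2 h RT + 16 h 37 C; PBS wash, 4% PFA; GFP count 488/509 nm.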
(In general: qHTS replaces the single test concentration by a dilution series.)
`CCOc1ccc(CCNC(=O)Cn2nc(C)n3c(cc4occc43)c2=O)cc1OCC`: the “activity change, negative = inhibition” value was inactive: 86.9%.

For `CCOC(=O)N[C@@H]1CC[C@@H]2[C@@H](C1)C[C@H]1C(=O)O[C@H](C)[C@H]1[C@@H]2C=Cc1ccc(-c2cccc(F)c2)cn1`, the “activity change, negative = inhibition” value is inactive: 1.1%.

Turning to `CC(C)Oc1ccc(CNC(=O)c2cc3ccccn3n2)cc1`, the outcome was inactive.

Consider `COc1ccc(CNC(=O)CSc2nc(-c3ccc(OC)cc3)cc(C(F)(F)F)n2)cc1`, for which the “activity change, negative = inhibition” value is inactive: 5.82%.

With `COc1cccc(-c2cc(C(=O)Nc3cc(Cl)ccc3O)on2)c1`, the “activity change, negative = inhibition” value is inactive: -3.77%.

In the case of `Cc1ccc(CCNC(=O)CCCn2nc(C)c3c(C)n(-c4ccccc4)nc3c2=O)cc1`, the “activity change, negative = inhibition” value was inactive: 6.21%.

As for `CC(=O)Nc1ccc(S(=O)(=O)N2CCC(n3c(C(F)(F)F)nc4cccnc43)CC2)cc1`, the “activity change, negative = inhibition” value was inactive: 1.41%.

As to `CCc1ccc(OCC(=O)Nc2cc3oc4ccccc4c3cc2OC)cc1`, the outcome was inactive.

For `O=C(COc1ccccc1Cl)NCC1(N2CCOCC2)CCCCC1`, the result was inactive.

Take `COc1cc(OC)c(NC(=O)C2CCCN(c3ncnc4c3nc3n4CCCCC3)C2)cc1Cl` (stereo not drawn): the “activity change, negative = inhibition” value is inactive: 2.6%.

With `Cc1ccccc1-c1nc(CS(=O)(=O)CC(=O)NCC(C)c2ccccc2)c(C)o1` (stereo not drawn), the compound was called inactive.

Turning to `CCc1ccccc1NC(=O)Cn1c(=O)n(Cc2ccc3c(c2)OCO3)c(=O)c2ccc(C(=O)NC3CCCCC3)cc21`, the “activity change, negative = inhibition” value is inactive: -10.5%.

Take `CCCc1nn2c(=O)cc(COC(=O)c3cccc(NC(=O)COc4ccccc4C)c3)nc2s1`: the outcome was inactive.

For the compound `Cc1cccc(OCCn2c(-c3ccc(Cl)cc3)nc3ccccc3c2=O)c1`, the “activity change, negative = inhibition” value was inactive: -6.04%.

For `O=C(NCCc1ccccc1)c1cnc2sc(N3CCCC3)nn2c1=O`, the “activity change, negative = inhibition” value was inactive: 4.74%.

In the case of `COc1ccccc1N1CCN(C(=O)c2nn(-c3ccc(C)cc3)c(=O)n(C)c2=O)CC1`, the “activity change, negative = inhibition” value is inactive: 2.62%.

For `COCCCNC(=O)c1oc2c(c1C)-c1nn(Cc3cccc(Cl)c3)cc1CC2`, the “activity change, negative = inhibition” value was inactive: -0.025%.

Regarding `CC(=O)c1c(C)nc2nc(-c3ccccc3)nn2c1C`, the result was inactive.

Turning to `CCCCOc1ccc(C(=O)N2CCN(CCc3ccncc3)CC2)cc1`, the “activity change, negative = inhibition” value was inactive: 3.02%.

Turning to `COC(=O)C1=C(CS(=O)(=O)c2cc(Cl)ccc2OC)NC(=O)NC1c1ccccc1` (stereo not drawn), the “activity change, negative = inhibition” value was inactive: -22.4%.

Turning to `COc1cc(NS(=O)(=O)c2ccc3c(c2)CCN3S(C)(=O)=O)cc(OC)c1`, the “activity change, negative = inhibition” value is inactive: 7.2%.

Consider `Cc1cc2nnc(SCC(=O)Nc3ccc(F)c(Cl)c3)n2c2ccccc12`, for which the “activity change, negative = inhibition” value is inactive: -6.93%.

Take `CC1Cc2cc(S(=O)(=O)N3CCN(c4ccccc4F)CC3)ccc2N1C(=O)C1CCC1` (stereo not drawn): the “activity change, negative = inhibition” value is inactive: -0.171%.

Consider `CCOC(=O)c1ccc(Nc2c(-c3ccc(O)c(OC)c3)nc3nc[nH]n23)cc1`, for which the “activity change, negative = inhibition” value is inactive: 0.179%.

With `CCCn1ccc2c(OCC(=O)NCc3ccc(C)cc3)cccc2c1=O`, the “activity change, negative = inhibition” value is inactive: -0.303%.

For the compound `Cc1ccc(CNC(=O)C2CCCN(S(=O)(=O)c3cccc4nsnc34)C2)cc1` (stereo not drawn), the “activity change, negative = inhibition” value is inactive: 20.7%.

Take `CCc1ccc2c(c1)c(=O)c(S(=O)(=O)c1ccc(F)cc1)cn2CC(=O)Nc1ccc(C)cc1C`: the “activity change, negative = inhibition” value was inactive: -3.56%.

Regarding `CS(=O)(=O)OCCCCOS(C)(=O)=O`, the “activity change, negative = inhibition” value is inactive: -9.92%.

For the compound `CCc1nn2c(=O)cc(COC(=O)c3cccc(NC(=O)c4ccccc4Cl)c3)nc2s1`, the “activity change, negative = inhibition” value is inactive: 19%.

Regarding `Cc1cc2ncn(CCCCOc3ccccc3)c2cc1C`, the compound was classed as inactive.

`CN1CCC[C@H]1CCO[C@](C)(c1ccccc1)c1ccc(Cl)cc1`: the “activity change, negative = inhibition” value is inactive: 3.49%.

Consider `COc1ccc(CNC(=O)c2cnc3sc(N4CCCC4)nn3c2=O)cc1OC`, for which the “activity change, negative = inhibition” value was inactive: 20.8%.

For `O=C(CSc1c2c(nc3ccc(Cl)cc13)CCCC2)N1CCN(c2cccc(Cl)c2)CC1`, the “activity change, negative = inhibition” value is inactive: -8.77%.

As to `Cc1ccc2c(c1)C(c1ccc(F)cc1)N(C(=O)COc1ccc(Cl)cc1Cl)CC(=O)N2` (stereo not drawn), the “activity change, negative = inhibition” value is inactive: 0.634%.

For the compound `CCN(CCCNC(=O)c1cc2c(=O)n(C)c3ccccc3c2s1)Cc1ccccc1`, the outcome was inactive.

`COc1cc(NC(=O)CC2C(=O)N(c3ccc(Cl)cc3)C(=O)N2Cc2cccs2)cc(OC)c1` (stereo not drawn): the “activity change, negative = inhibition” value was inactive: -1.92%.

For the compound `Cc1ccc(C(=O)NCc2ccc(N(C)C)cc2)cc1NC(=O)c1nsc2ccccc12`, the “activity change, negative = inhibition” value is inactive: -16.7%.

`CCOC(=O)c1c(C)[nH]c(CCC(=O)Nc2cc(C)ccc2OC)c1C`: the outcome was inactive.

Turning to `COc1cc(-c2nnn(CC(=O)Nc3ccc(OC(F)(F)F)cc3)n2)cc(OC)c1OC`, the compound was classed as inactive.

Consider `CC1CCC(NC(=O)c2ccc3c(c2)N(Cc2ccccc2)C(=O)c2ccccc2S3=O)CC1` (stereo not drawn), for which the compound was called inactive.

On to `CCOC(=O)c1cccc(NC(=O)CN2C(=O)c3ccccc3Sc3ncccc32)c1`, for which the “activity change, negative = inhibition” value is inactive: 28.6%.

On to `O=C(Cn1ncc2c1-c1ccccc1OC2)N1CCN(c2ccccc2F)CC1`, for which the “activity change, negative = inhibition” value was inactive: 4.78%.

In the case of `COc1ccccc1CNC(=O)C1CCCN(S(=O)(=O)c2ccc3c(c2)CCCN3C(C)=O)C1` (stereo not drawn), the “activity change, negative = inhibition” value is inactive: -0.5%.

Consider `Cc1cccc(C)c1NC(=O)c1oc2ccc3c(c2c1C)C(=O)CC(C)(C)O3`, for which the result was inactive.

For the compound `Cc1cc2oc(C(=O)Nc3c(C(=O)Nc4ccccc4)oc4ccccc34)cc(=O)c2cc1C`, the “activity change, negative = inhibition” value is inactive: -6.81%.

In the case of `Cc1cccn2c(=O)c(C(=O)NCCCN3CCCCC3C)c(O)nc12` (stereo not drawn), the compound was called inactive.

Consider `Cc1nnc(NCc2ccccc2)c2c1nnn2Cc1ccccc1Cl`, for which the “activity change, negative = inhibition” value is inactive: -14.2%.

Consider `O=C(CSCc1ccccc1Cl)N1CCN(c2ccc(F)cc2)CC1`, for which the “activity change, negative = inhibition” value was inactive: -0.153%.

Values taken from PubChem BioAssay AID1963576 (National Center for Advancing Translational Sciences (NCATS), 2024).
